Source: patent US8741893B2, “6,7-dihydro-[1,3,4]thiadiazolo-[3,2-a][1,3]diazepin derivatives and pharmaceutical compositions containing the same as hypnotic or anesthetic agent and method for their preparation” (priority 2011, dated 2014)

Key:
mice [1] = experiment: Potentiating effect to the non hypnotic dose of thiopental sodium; conditions: GS-62 0.06 mmole/kg, thiopental sodium 0.06 mmole/kg, i.p.
mice [2] = experiment: Mechanism(s) of action of the hypnotic effect: reversal of induced sleep by receptor blockers; assay type: in vivo, Swiss albino mice; conditions: GS-62 0.4 mmole/kg i.p.
mice [3] = experiment: Hypnotic activity, standard righting reflex method; assay type: in vivo, Swiss albino mice; conditions: for Induction of hypnosis: i.p., doses of 0.2-2 mmol/kg, mice
mice [4] = assay type: in vivo; conditions: 98.0 mg/kg i.p. daily for 3 consecutive days
Experimental: A group of 3 Swiss albino mice were used to conduct acute tolerance experiment. Each mouse received 0.4 mmol/kg of compound of formula 1 intraperitoneally, daily for 3 consecutive days. After each of the 3 administrations, the sleeping time-induced by the compound of formula 1 was recorded for each mouse. Representative example is shown in Example 7.
Acute tolerance test was conducted following the intraperitoneal administration of GS-62 (Example 2, 98.0 mg/kg), daily for 3 consecutive days. […] The onset and sleeping time after the first administration of the compound were 6.7±0.2 and 87±10 min., respectively; while after the last administration of the compound were 5.7±0.5 and 70±10 min., respectively.

Structure (SMILES)	Potentiation of one third of the minimal effective dose of thiopental sodium (mice [1])	Reversal of induced sleep by flumazenil (mice [2]; flumazenil 1.2 mg/kg i.p. after 5 minutes of sleep)	Reversal of induced sleep by ketanserin (mice [2]; ketanserin 3 mg/kg i.p. after 5 minutes of sleep)	Reversal of induced sleep by picrotoxin (mice [2]; picrotoxin 32 mg/kg)	Time after picrotoxin at which attempts to regain the righting reflex were seen (mice [2]; picrotoxin 32 mg/kg) [min]	Reversal of induced sleep by combination of picrotoxin and flumazenil (mice [2]; picrotoxin 32 mg/kg + flumazenil 1.2 mg/kg, 5 minutes after induction of sleep, N=6)	Onset and durations of sleep compared with thiopental sodium (mice [3]; P<0.05, n=6)	Induction of hypnosis (mice [3])	Difference among sleeping times after first and last administration (acute tolerance) (mice [4])	Onset after the first administration (mice [4]) [min]	Onset after the last administration (mice [4]) [min]	Sleeping time after the first administration (mice [4]) [min]	Sleeping time after the last administration (mice [4]) [min]
O=C1CCCN2N=C(c3ccccc3)SC2=N1 [GS-62, (E) 2-Phenyl-6,7-dihydro-[1,3,4]thiadiazolo[3,2-α][1,3]diazepin-8(5H)-one]	can potentiate	did not reverse the induced sleep	did not reverse the induced sleep	no complete regaining of the righting reflex	5	complete reversal of sleep and regaining of the righting reflex	significantly greater	induced hypnosis	no significant differences	6.7 ± 0.2	5.7 ± 0.5	87 ± 10	70 ± 10
CCCC(C)C1(CC)C(=O)NC(=S)NC1=O (centres unmarked) [Thiopental Na, thiopental sodium, reference compound]								induced hypnosis					
